This is an account of results in PMC4336329 (PLoS ONE, 2015).

SMILES strings stand for the structures. The campaign covered roughly 310,000 compounds. About 2,200 (0.71%) showed an effect of 50% or more. Effects have a minus sign here. The list shows a part of the results.

human ether-à-go-go-related gene (hERG) potassium channel, sequence (Q12809 whole entry, looked up): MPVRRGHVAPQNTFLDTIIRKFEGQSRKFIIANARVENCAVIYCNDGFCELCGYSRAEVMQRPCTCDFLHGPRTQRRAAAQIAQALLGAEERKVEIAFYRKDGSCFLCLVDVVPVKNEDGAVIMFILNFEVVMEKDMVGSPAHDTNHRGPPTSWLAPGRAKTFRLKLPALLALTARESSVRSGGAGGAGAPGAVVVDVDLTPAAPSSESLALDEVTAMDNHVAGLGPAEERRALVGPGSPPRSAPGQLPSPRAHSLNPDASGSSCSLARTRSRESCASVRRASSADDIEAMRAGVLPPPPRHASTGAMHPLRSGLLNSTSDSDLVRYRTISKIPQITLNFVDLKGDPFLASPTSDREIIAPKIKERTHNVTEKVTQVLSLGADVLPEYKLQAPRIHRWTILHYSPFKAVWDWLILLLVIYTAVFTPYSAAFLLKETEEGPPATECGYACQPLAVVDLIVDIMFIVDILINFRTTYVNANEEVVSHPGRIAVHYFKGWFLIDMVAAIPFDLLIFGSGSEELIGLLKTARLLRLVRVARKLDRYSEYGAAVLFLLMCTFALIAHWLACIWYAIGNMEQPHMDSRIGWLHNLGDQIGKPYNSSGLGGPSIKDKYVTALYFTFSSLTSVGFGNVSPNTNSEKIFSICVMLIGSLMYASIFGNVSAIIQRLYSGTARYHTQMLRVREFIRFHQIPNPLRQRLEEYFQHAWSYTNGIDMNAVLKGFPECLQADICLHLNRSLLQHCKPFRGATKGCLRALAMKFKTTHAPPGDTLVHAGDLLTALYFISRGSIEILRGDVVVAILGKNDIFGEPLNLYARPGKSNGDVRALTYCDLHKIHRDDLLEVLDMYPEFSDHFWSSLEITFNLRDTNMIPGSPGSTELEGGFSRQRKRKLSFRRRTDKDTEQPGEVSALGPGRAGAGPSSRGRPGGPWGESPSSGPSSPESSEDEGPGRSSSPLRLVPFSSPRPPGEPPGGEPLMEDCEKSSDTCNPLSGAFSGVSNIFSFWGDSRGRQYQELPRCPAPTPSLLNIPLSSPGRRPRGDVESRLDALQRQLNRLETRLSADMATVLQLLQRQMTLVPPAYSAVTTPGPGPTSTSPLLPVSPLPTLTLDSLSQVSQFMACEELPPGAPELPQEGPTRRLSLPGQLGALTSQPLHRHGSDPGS

This test addresses human ether-à-go-go-related gene (hERG) potassium channel (human, UniProt Q12809). Kind of test: primary screen, population patch clamp on CHO cells stably expressing hERG.
Turning to `CSc1ccc(CNC(=O)C2Cc3cc(S(=O)(=O)N4CCCC4)ccc3N2C(C)=O)cc1` (centres unmarked), the “hERG current change (%, negative = inhibition) at 1uM” value stood at 10.1%. Regarding `CCC1(CC)NC(=O)N(CC(=O)OCC(=O)Nc2cc(OC)ccc2OC)C1=O`, the “hERG current change (%, negative = inhibition) at 1uM” value amounted to 4.73%.

As to `Cc1coc2c1c(C)cc1oc(=O)c(CC(=O)NCC(=O)O)c(C)c12`, the “hERG current change (%, negative = inhibition) at 1uM” value was determined as 17.4%. Take `COc1cccc(CC2CC(=O)N(c3ccc4c(C)cc(=O)oc4c3)C2=O)c1` (centres unmarked): the “hERG current change (%, negative = inhibition) at 1uM” value worked out at 5.07%.

`CCCCNC(=O)[C@H]1C[C@H]1[C@@H](O)[C@H](CO)NC(=O)[C@H](Cc1ccccc1)NC(=O)OC(C)(C)C`: the “hERG current change (%, negative = inhibition) at 1uM” value was found to be 11.5%.

Regarding `COc1cc(C2NC(=O)NC(C)=C2C(=O)OCC2CCCCC2)ccc1O` (centres unmarked), the “hERG current change (%, negative = inhibition) at 1uM” value is 11.3%. Turning to `CCOC(=O)c1cc(NC(=O)Nc2ccc(Br)cc2)c(C)nc1C`, the “hERG current change (%, negative = inhibition) at 1uM” value came out at 7.68%.

As for `COc1ccc(NC(=O)C2CCCN2C(=O)OCc2ccccc2)cc1` (centres unmarked), the “hERG current change (%, negative = inhibition) at 1uM” value came to 6.39%. `COc1ccc(OCCCN2CCCC(C)C2)cc1` (centres unmarked): the “hERG current change (%, negative = inhibition) at 1uM” value is -2.33%.

As for `CN(CC(=O)Nc1ccc(Cl)c(Cl)c1)C(=O)c1cccc2cccnc12`, the “hERG current change (%, negative = inhibition) at 1uM” value stood at 4.87%. Take `Cc1ccc(S(=O)(=O)Nc2cccc(C(=O)NCc3ccccn3)c2)cc1F`: the “hERG current change (%, negative = inhibition) at 1uM” value is 11.3%. To `O=S(=O)(Nc1cc(F)ccc1F)c1cccc2nonc12` belongs -61%. For the compound `COc1cccc(OCc2nc3ccccc3[nH]2)c1`, the “hERG current change (%, negative = inhibition) at 1uM” value is listed as 8.07%. Turning to `Cc1ccc(NC(=O)c2ccccc2NC(=O)c2cccnc2)cc1`, the “hERG current change (%, negative = inhibition) at 1uM” value worked out at 14.4%. Regarding `CC(=O)Nc1nc2n(n1)C(c1ccccc1)C=C(c1ccccc1)N2` (centres unmarked), the “hERG current change (%, negative = inhibition) at 1uM” value worked out at 0.0514%. `CS(=O)(=O)N(CC(=O)NCc1cccnc1)C1CCCCC1`: the “hERG current change (%, negative = inhibition) at 1uM” value was 6.48%.

On to `O=C(CCS(=O)(=O)c1ccccc1)Nc1nncs1`, for which the “hERG current change (%, negative = inhibition) at 1uM” value is listed as 8.06%. In the case of `CCCNC(=O)N1CCN(S(=O)(=O)c2ccc(C)c(C)c2)CC1`, the “hERG current change (%, negative = inhibition) at 1uM” value is reported as -7.15%. The same measure for `Cc1ccccc1NC(=O)c1ocnc1C`: 16.2%.

As for `C[n+]1c2n(c3ccccc31)N=C(c1ccccc1)CS2.[Br-]`, the “hERG current change (%, negative = inhibition) at 1uM” value is on record as -17.3%. For the compound `O=Nc1c(-c2cccc([N+](=O)[O-])c2)nc2ncccn12`, the “hERG current change (%, negative = inhibition) at 1uM” value worked out at 17.1%. Regarding `Cc1nn(Cc2c(Cl)cccc2Cl)c(Cl)c1/C=C/C(=O)OCC(=O)NCC(F)(F)F`, the “hERG current change (%, negative = inhibition) at 1uM” value came to 6.81%.

For `Cc1nc2cc(NC(=O)CSc3nc4c(C)cccc4cc3C#N)ccc2s1`, the “hERG current change (%, negative = inhibition) at 1uM” value came to 16.7%. As for `COc1ccccc1N1CCN(C(=O)Cn2nc(C(F)(F)F)c3c2CCC3)CC1`, the “hERG current change (%, negative = inhibition) at 1uM” value came to 12%. As for `CCOC(=O)CSc1n[nH]c(=O)n1CCc1ccccc1`, the “hERG current change (%, negative = inhibition) at 1uM” value is recorded as 4.16%. To `FC(F)(F)c1cccc(Oc2ccc3c(C(F)(F)F)cc(C(F)(F)F)nc3n2)c1` belongs 6.61%; to `CCCN1CCN(C(=O)Cn2ncc3c([nH]c4ccc(C)cc43)c2=O)CC1`, 12.7%. As for `COc1cccc(CNC(=O)c2c(C)nn(-c3ccccc3)c2C)c1`, the “hERG current change (%, negative = inhibition) at 1uM” value turned out to be 15.1%. `COC(C(=O)N/N=C/c1ccc(OCC(=O)N2CCOCC2)cc1)c1ccccc1` (centres unmarked): the “hERG current change (%, negative = inhibition) at 1uM” value is recorded as 15%. For the compound `CN(Cc1ccccc1)C(=O)c1[nH]cnc1C(=O)NCc1ccc(CNC(=O)OC(C)(C)C)cc1`, the “hERG current change (%, negative = inhibition) at 1uM” value amounted to 16%. On to `CCN(Cc1nc2ccccc2c(=O)[nH]1)C(=O)COc1ccccc1-c1ccccc1`, for which the “hERG current change (%, negative = inhibition) at 1uM” value is listed as 11.5%. As for `O=c1c2cc3c(nc2[nH]c(=S)n1-c1ccccc1)CCCC3`, the “hERG current change (%, negative = inhibition) at 1uM” value stood at 7.73%. For `CCOc1ccccc1NC(=O)c1cccc(NC2=NC3CS(=O)(=O)CC3S2)c1` (centres unmarked), the “hERG current change (%, negative = inhibition) at 1uM” value is 8.57%.

On to `COC(=O)c1cc(Br)c(=O)n(Cc2cccnc2)c1`, for which the “hERG current change (%, negative = inhibition) at 1uM” value amounted to 16.4%. Regarding `CC(C)CC(CO)N1CCN(C(=O)c2ccc(C(C)(C)C)cc2)CCC1=O` (centres unmarked), the “hERG current change (%, negative = inhibition) at 1uM” value amounted to 15.8%. Consider `CC(=O)NC(Cc1ccc(F)cc1)C(=O)NC1CCN(C(=O)Nc2ccccc2C)CC1` (centres unmarked), for which the “hERG current change (%, negative = inhibition) at 1uM” value is on record as 7.49%. Regarding `COC(=O)Cn1c(CCS(=O)(=O)c2ccc(C)c(C)c2)nc2ccccc21`, the “hERG current change (%, negative = inhibition) at 1uM” value amounted to 13.8%. In the case of `COc1cc(/C=N/NC(=O)c2ccc(CSc3nncn3C)cc2)cc(OC)c1O`, the “hERG current change (%, negative = inhibition) at 1uM” value came to 6.17%.

`Cc1nc(SCC(C)C)[nH]c(=O)c1Cc1ccccc1`: the “hERG current change (%, negative = inhibition) at 1uM” value was 4.63%. Regarding `COC(=O)c1ccc(CNC(=O)CSc2nnc(COc3ccccc3)n2C)o1`, the “hERG current change (%, negative = inhibition) at 1uM” value was -0.261%.

As for `COc1ccc(-c2nc3ccc([N+](=O)[O-])cc3[nH]2)cc1`, the “hERG current change (%, negative = inhibition) at 1uM” value was determined as 17%. Take `Cc1cc(NC(=O)COC(=O)c2cc(S(=O)(=O)N(C)c3ccccc3)ccc2Cl)no1`: the “hERG current change (%, negative = inhibition) at 1uM” value is 14%. `O=S(=O)(Cc1nnnn1-c1ccccc1)c1ccc(Cl)cc1`: the “hERG current change (%, negative = inhibition) at 1uM” value is on record as 18.7%.

In the case of `COc1cc(OC)c(/C=N/NC(=O)COc2cccc3cccnc23)c(OC)c1`, the “hERG current change (%, negative = inhibition) at 1uM” value is 12.7%. With `O=C(c1cc(-c2cccs2)on1)N1CCCCC1`, the “hERG current change (%, negative = inhibition) at 1uM” value was determined as 6.81%. As for `O=C(NC1CCCCC1)N1CCCc2ccccc21`, the “hERG current change (%, negative = inhibition) at 1uM” value was found to be 3.81%. For `CC/C(=N\NC(=O)CSc1ncccn1)c1ccc2c(c1)OCCO2`, the “hERG current change (%, negative = inhibition) at 1uM” value was found to be 10.3%.

`CON(C)S(=O)(=O)c1ccc2c(c1)N(Cc1ccc(C)cc1)C(=O)C1CCCN21` (centres unmarked): the “hERG current change (%, negative = inhibition) at 1uM” value amounted to 14.1%. For `C=CCn1c(SC)nnc1-c1cccc([N+](=O)[O-])c1`, the “hERG current change (%, negative = inhibition) at 1uM” value came out at 1.48%. Take `C=CCNC(=O)c1ccccc1NC(=O)c1ccccc1`: the “hERG current change (%, negative = inhibition) at 1uM” value stood at 12.7%. Turning to `Cc1nn(CC(=O)N2CCN(C)CC2)c(=O)c2ccccc12`, the “hERG current change (%, negative = inhibition) at 1uM” value came out at 2.44%. `COC(=O)N/N=C/c1ccc(Oc2ccccc2)cc1`: the “hERG current change (%, negative = inhibition) at 1uM” value came to 3.75%.

Regarding `COc1ccc(NC(=O)COc2ccc(C(=O)c3ccc(F)cc3)cc2)cc1S(N)(=O)=O`, the “hERG current change (%, negative = inhibition) at 1uM” value is reported as 14.7%. Regarding `CCOC(=O)c1c(NC(C)=O)sc2c1CCC(C=O)=C2Sc1ccccc1`, the “hERG current change (%, negative = inhibition) at 1uM” value is given as 3.5%.

With `COc1ccc(Cc2noc(CN3CCCC(C(=O)c4cccs4)C3)n2)cc1OC` (centres unmarked), the “hERG current change (%, negative = inhibition) at 1uM” value amounted to 9.47%. `CC(C)(C)c1cc(C(=O)O)nn1-c1ccccc1`: the “hERG current change (%, negative = inhibition) at 1uM” value is on record as 13.6%.
